According to PubChem BioAssay AID662 (National Center for Advancing Translational Sciences (NCATS), 2007):
“And” between values parts separate entries of the source, which are not always exact repeats. Equal values may be shown once. Among all 71,000 compounds or so, about 1,800 (2.5%) were called active. The shares of active, inactive and inconclusive entries below differ from those in the screen. The call rests on the fitted dose curve; in most records, active means well fitted activation curve with a large enough effect in the signal ratio, with a control signal flat (not every such curve was filed as active); inconclusive means small, poorly fitted or top-dose-only effect, or effect the other way, or a change in a side signal; inactive means flat fitted curve, though single readings scatter; the % refers to the signal ratio. A potency beside an inconclusive call is a rough fit, not a confirmed value.

Test: Cell signaling CRE-BLA (Fsk stim); on activity change, negative = inhibition: % of control where 0% means no effect
Conditions: CHO CRE-bla reporter (cAMP response element driving beta-lactamase), forskolin EC10, beta-lactamase ratio; activity change, negative = inhibition: at 38.2 µM (top of the series) unless noted
Summary of the method: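 Cells were plated overnight at 37 °C, exposed to compound titrations plus EC10 NKH 477 for 3 h, then given CCF4 dye for 2 h at room temperature. Blue/green (460/530 nm) ratio was converted to %Activity and AC50 values calculated.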
Potency means the concentration at half of the fitted maximal effect; tags describe the fitted curve by direction and shape.

Compound	Potency	activity change, negative = inhibition
CSc1nc(N2CCOCC2)c2c3c(sc2n1)CCCC3	inconclusive: 10 µM [rising, partial curve]	
NC(=O)SCC(=O)Nc1cccc(Cl)c1		inconclusive: -10.5% [cytotoxic]
O=S(=O)(c1ccccc1)N1CCC2(CCN(c3ccncc3)CC2)CC1		inactive
Cc1ccc(-c2nnn(CC(=O)Nc3ccccc3-c3ccccc3)n2)c(-n2cnnn2)c1		inactive
CNC(=O)CSc1nnc(-c2cc(C)cc(C)c2)o1		inactive
Cn1c(=O)n(Cc2ccco2)c(=N)c2c3c(sc21)CCC3	inconclusive: 10 µM [rising, single point]	
CCCN(CC1CC1)c1nc(C)nc(Nc2c(Cl)cc(Cl)cc2Cl)c1Cl		inconclusive: 13.3% and inconclusive: 9.9%
CCN(CC)C(=O)c1sc2nc(-c3ccncc3)[nH]c(=O)c2c1C	inconclusive: 0.0794 µM [falling, full curve, poor fit]	
O=C(NCc1ccco1)c1ccc2c(=O)n(CC3CCCO3)c(=S)[nH]c2c1 (configuration not stated)		inconclusive: 22.9%
O=C(c1cnccn1)N1CCC[C@@]2(CCN(C(c3ccccc3)c3ccccc3)C2)C1		inactive
COc1ccc(NC(=O)c2cc(CN3C(=O)c4ccccc4C3=O)ccc2OC)cn1	inconclusive: 10 µM [rising, partial curve]	
N#Cc1cccc(NC(=O)N2CC[C@@]3(CCCN(C(=O)c4cccc(F)c4)C3)C2)c1		inactive
Nc1ncnc2c1ncn2C1CCCC1	inconclusive: 15.8 µM [rising, partial curve]	
Cc1nonc1NC(=O)OC1CCCCC1		inconclusive: -8.65%
COc1ccc(Br)cc1C1NC(=O)c2c(sc3c2CCN(C)C3)N1 (configuration not stated)	active: 12.6 µM	
O=C(COC(=O)CCc1c[nH]c(=O)[nH]1)Nc1ccccc1		inactive
c1ccc(Cc2nc(-c3ccccn3)no2)cc1	inconclusive: 0.02 µM [rising, full curve, poor fit]	
Cc1cc(-c2nnc3n2N=C(C(C)(C)C)CS3)n[nH]1		inconclusive: 17.7%
Fc1ccc(Nc2nc(Oc3ccc4c(c3)OCO4)nc(N3CCOCC3)n2)c(F)c1	inconclusive: 7.94 µM [rising, partial curve]	
Cc1n[nH]c(C)c1S(=O)(=O)NCCc1ccc(Cl)cc1	inconclusive: 25.1 µM [falling, single point]	
O=C(Nc1ccc2c(c1)oc1ccc(S(=O)(=O)N3CCCC3)cc12)C1CC1		inconclusive: 8.65%

Compound	Potency	activity change, negative = inhibition
COCCn1c(N)c(NCc2ccccc2)c(=O)n(CC(=O)Nc2cc(C)ccc2C)c1=O	inconclusive: 3.16 µM [falling, single point]	
CN1C(=S)SC(N(O)C(=O)NC2CCCCC2)C1(C)C (configuration not stated)		inconclusive: -0.978%
COc1ccc(CNC(=O)c2cc3c(=O)n4ccccc4nc3n(Cc3ccco3)c2=N)cc1	inconclusive: 10 µM [rising, partial curve]	
Cn1c(C(=O)NCCC2=CCCCC2)cc2c(=O)n3ccccc3nc21	active: 1.58 µM	
N#Cc1c2c(c(NCCN3CCOCC3)n3c1nc1ccccc13)CCCC2		inconclusive: 18.8%
Cc1ccc2c(c1)N(Cc1ccncc1)C(=O)C(C)O2 (configuration not stated)	inconclusive: 10 µM [rising, single point]	
CCOC(=O)N1CCC(NC(=O)CCc2c(C)nc3nc(C)nn3c2C)CC1		inconclusive: -19.1%
[N-]=[N+]=CC(=O)CNC(=O)[C@@H](Cc1ccccc1)N1C(=O)c2ccccc2C1=O		inconclusive: -7.96%
CN(C)c1ncnc2ccc(-c3cccnc3)cc12	active: 3.16 µM	
O=C(Nc1ccc(Cl)cc1)c1ccc2c(c1)OCO2		inactive
O=C(O)[C@@H]1[C@@H](C(=O)NCc2ccccn2)[C@@H]2C=C[C@@H]1O2		inactive: 7.76% [at 7.6 µM]
O=C(c1ccc2c(=O)n(Cc3ccco3)c(=S)[nH]c2c1)N1CCN(c2ccccc2)CC1		inconclusive: 23.1%
CCC/C=C(\CCC)C(NS(=O)(=O)CC12CCC(CC1=O)C2(C)C)c1ccc(C(=O)OC)cc1 (configuration not stated)		inconclusive: -7.65%
CCN(CC)S(=O)(=O)c1ccc2c(c1)nc(SCC(=O)NC1CC1)n2-c1ccccc1OC	inconclusive: 10 µM [rising, single point]	
COc1ccccc1C1C=C(c2ccccc2)Nc2nnnn21 (configuration not stated)		inconclusive: 13.3% [at 7.6 µM]
O=S(=O)(Nc1cccnc1)c1ccc(C2CCCCC2)cc1	inconclusive: 12.6 µM [rising, partial curve]	
COc1ccc(-c2nnc3ccc(SC)nn23)cc1	inconclusive: 7.94 µM [rising, partial curve]	
NC(=O)c1oc2ccc(Cl)cc2c1NC(=O)CN1CCOCC1		inconclusive: 9.97%
O=S(=O)(NCCOCC(F)(F)C(F)F)c1ccc2oc3ccccc3c2c1		inconclusive: -9.37%
Cc1ccc2nc(-c3ccccc3)cc(C(=O)O)c2c1		inactive
CC(=O)Nc1ccc(S(=O)(=O)Nc2ccc(N3CCOCC3)c(F)c2)cc1		inactive

Compound	Potency	activity change, negative = inhibition
NC(=O)c1ccccc1[N+](=O)[O-]		inactive
Cc1cc(C(=O)CSc2nnnn2-c2ccccc2)c(C)n1CC1CCCO1 (configuration not stated)		inactive
CCCCCCCC[N+](CCCCCCCC)(CCCCCCCC)CCCCCCCC		inconclusive: 13.2% [cytotoxic]
CCN=C1SC(CC(=O)Nc2ccc(C)cc2)C(=O)N1CC (configuration not stated)		inconclusive: -2.47%
N=C(N)SCc1ccc(Cl)cc1Cl (tested in a mixture with another compound)		inactive: -2.54% [at 7.6 µM]
COCCN1Cc2cccc(C(=O)Nc3ccc(S(=O)(=O)N4CCCCC4)cc3)c2C1=O	inconclusive: 20 µM [rising, single point]	
N=c1ccn2c(n1)O[C@@H]1[C@@H](O)[C@H](CO)O[C@H]12		inactive
COC(=O)c1ccc(CSc2nnc3n(Cc4ccccc4OC)c(=O)c4ccccc4n23)o1		inactive
CN1CCC2(CC1)CCN(C(=O)c1cc(C(F)(F)F)cc(C(F)(F)F)c1)CC2		inactive
CN1C(=O)CSc2ccc(NC(=O)Nc3ccccn3)cc21		inactive
Cc1cc(=O)n(CC(C)O)c(O)c1C#N (configuration not stated)		inactive
CC1(C)CCC[C@@]2(C)[C@@H]1CC[C@]1(C)OC(=O)C[C@@H]21	inconclusive: 31.6 µM [rising, partial curve, poor fit]	
CCOc1ccc(C(=O)N2CCN(C(=O)c3ccco3)CC2)cc1OCC		inconclusive: 9.33%
O=c1c2ccccc2[nH]c(=S)n1Cc1cccnc1	inconclusive: 5.01 µM [rising, single point]	
CCOC(=O)N1CCN(C(=O)c2cc3cc(Br)ccc3oc2=O)CC1		inactive
Cn1c(=O)[nH]c(=O)c2c1nc(CN1CCN(c3cccc(Cl)c3)CC1)n2CCc1ccccc1	active: 12.6 µM	
CCN(CC)C(=O)Oc1ccc2c(=O)c(-c3ccccc3)coc2c1		inconclusive: -13.3%
CCCc1cc(=O)oc2cc(C)cc(OC(=O)c3ccco3)c12	inconclusive: 5.01 µM [rising, single point]	
CCS(=O)(=O)Nc1ccc(C(=O)CC2(O)C(=O)Nc3ccc(Br)cc32)cc1 (configuration not stated)		inactive
Cc1ccc(NC(=O)N(Cc2ccc3c(c2)OCO3)Cc2cc3cc4c(cc3[nH]c2=O)OCCO4)cc1	inconclusive: 3.16 µM [rising, partial curve]	
CC(=O)c1n[nH]nc1NC(=O)c1ccccc1		inconclusive: -10.6%

Compound	Potency	activity change, negative = inhibition
CN1C(=O)N(C)C2(c3ccccc3)N(C)C(=O)NC12c1ccccc1 (configuration not stated)		inconclusive: 20.2%
CCOc1ccc2nc(N3CCCCCC3)sc2c1	inconclusive: 12.6 µM [rising, partial curve]	
O=C(Nc1nccs1)c1cc(N2CCOCC2)nc2ccccc12	inconclusive: 3.16 µM [falling, single point]	
CS(=O)(=O)N(CCc1ccccc1)CC(=O)NCc1ccco1		inactive
Cc1ccc(-n2c(SCC(=O)N3CCOCC3)nnc2-c2cccnc2)cc1		inactive
COC(=O)[C@H](C)NC(=O)Nc1ccccc1C(F)(F)F		inconclusive: -6.63%
CCS(=O)(=O)N1CCCC(C(=O)NCc2cccnc2)C1 (configuration not stated)		inconclusive: 9.98%
COc1ncc2nc(CCc3ccccc3)c(=O)n(C3CC3)c2n1	inconclusive: 25.1 µM [rising, partial curve]	
CCCCCn1c(CCCNC(=O)CC)nc2ccccc21		inactive
CC(=O)c1cc(-c2ccccc2)n(CC(=O)N2CCC(N3CCCCC3)CC2)c1C		inactive
COC(=O)COc1ccc(S(=O)(=O)NCc2cccnc2)cc1C		inconclusive: 21.3%
c1ccc(-c2nc3ccccc3s2)nc1		inactive
CCOc1cc(C(=O)Nc2cc(C)ccn2)cc(OCC)c1OCC	inconclusive: 6.31 µM [rising, partial curve]	
O=C(CCN1CCN(C/C=C/c2ccccc2)CC1)Nc1ccccc1		inconclusive: -3.99% [at 7.6 µM]
CCOC(=O)c1c(N)sc(C(O)(C(F)(F)F)C(F)(F)F)c1-c1ccc(OC)cc1OC	inconclusive: 5.01 µM [rising, single point]	
COc1ccc(-n2c(SC3CCOC3=O)nc3ccccc3c2=O)cc1OC (configuration not stated)		inconclusive: 26.6%
O=C(c1ccc(Cl)s1)N1CCc2ccccc21		inactive
COCC(=O)N1CCC2(CC1)CN(c1cccc(-c3ccccc3)c1)C2		inactive
Cc1cc(OC2CCCCC2)nc(-c2ccccc2O)n1	active: 2.51 µM	
